Here are results for 40 sequences from the supplement of paper PMC10441789.

The other results are listed elsewhere or left out. Antibody binding of pooled human sera (four to six donors per pool; dilution not stated) to peptides of the Trypanosoma cruzi antigen TSSA on microarrays. Quantile-normalised fluorescence in arbitrary units, mean of duplicate arrays; higher = more binding. No active / inactive call. The uninfected pools are read here as the healthy donors of the same country. The strongest signals lie near the top of the scale (about 60,000).

In this test the test system is pooled sera of chronic Chagas disease patients, Argentina. Description: antibody binding signal (normalised fluorescence) (arbitrary fluorescence units); higher = stronger serum antibody binding to peptide. As for the experimental part: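 Microarray of 15-residue peptides over residues 30-55 of Trypanosoma cruzi TSSAII, each with 1 to 10 substitutions at naturally variable positions, probed with one serum pool per country.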
Sequence PSGKENKTAAGGTPS came in with an antibody binding signal of 6780. The sequence GTEKKAATGGAPSPS yielded an antibody binding signal of 2790.

As for ISTPPSGTEKKPATG, the antibody binding signal is 43900. SGTDNKAAAGEAPSP: the antibody binding signal turned out to be 887.

Sequence GTDKKTATGEAPSQS displayed an antibody binding signal of 13600.

The sequence PPSGKDKKPATGGTP showed an antibody binding signal of 1160. TDKKPATGGAPSPSG gave an antibody binding signal of 1250. The result for TSSTPPSGKENKTAA reads 18200; that for KTAAGGTPSPPGASS, 1070; that for GTEKKTAAGETPSPP, 371. Turning to KKAAAGGAPSPPGAS, the antibody binding signal was 167. Next, GTDNKAAAGEAPSQP: 7040; KDNKTAAGETPSPSG: 1120. The result for KDNKTATGGAPSQSG reads 413. Next, TENKPATGEAPSPPG: 45700; GTENKAAAGGTPSPP: 38200. For the sequence TPPSGKDNKTATGGA, the antibody binding signal was 7440. Sequence GTEKKTATGGTPSPP displayed an antibody binding signal of 1300. For the sequence TDKKTAAGGAPSPPG, the antibody binding signal is 1070. The result for STPPSGTDKKAATGE reads 35800; that for STPPSGTDNKTATGG, 48500.

With GKDNKTATGETPSPP, the antibody binding signal was found to be 3000.

KDKKTATGETPSPPG gave an antibody binding signal of 201. With GKENKTAAGEAPSPS, the antibody binding signal was 3980. As for KENKTATGGAPSPSG, the antibody binding signal amounted to 373. For the sequence PSGTEKKPAAGGAPS, the antibody binding signal was 22000. Consider KENKAAAGGTPSPPG, for which the antibody binding signal turned out to be 139. In turn, STPPSGKENKTATGG registered an antibody binding signal of 39100. For the sequence STPPSGKEKKTAAGE, the antibody binding signal came to 15500. In the case of GKDKKPATGEAPSQP, the antibody binding signal worked out at 40800. The result for KEKKAATGETPSQPG reads 1600; that for GTEKKAATGGTPSQS, 1080. Turning to TDKKPATGGTPSQPG, the antibody binding signal was determined as 929. The result for TDKKTATGETPSPPG reads 266. In the case of STPPSGKEKKPAAGE, the antibody binding signal worked out at 24200.

KDNKTATGETPSQPG showed an antibody binding signal of 2350. Take PPSGKEKKAATGGTP: the antibody binding signal amounted to 1630. As for PSGKENKAAAGEAPS, the antibody binding signal came out at 9290.

In turn, GTEKKPAAGGTPSPP registered an antibody binding signal of 515.

On to ISTPPSGKEKKPATG, for which the antibody binding signal was 19000.
